# Assay results as given in the supplement of paper PMC3694890.
# ± gives the uncertainty stated by the source. The list shows a part of the results. A small y stands for phosphotyrosine.
# B1: PLCG2_743/A1 (peptide)
# chain: yNMERD
# B2: PLCG2_753/A1 (peptide)
# chain: yDVSRM
# B3: PLCG2_759/A1 (peptide)
# chain: yVDPSE
# B4: AXL_866/A1 (peptide)
# chain: yVLCPS
# B5: PSA2_101/A1 (peptide)
# chain: yQEPIP
# B6: PSA2_121/A1 (peptide)
# chain: yTQSGG
# B7: PSA2_167/A1 (peptide)
# chain: yVNGKT
# B8: PSA2_76/A1 (peptide)
# chain: ySGMGP
# B9: PSA2_98/A1 (peptide)
# chain: yLVYQE
# B10: PTK6_114/A1 (peptide)
# chain: yVLSVR
# B11: PTK6_342/A1 (peptide)
# chain: yLSHDH
# B12: PTK6_351/A1 (peptide)
# chain: yKWTAP
# B13: PTK6_447/A1 (peptide)
# chain: yENPTG
# B14: PTK7_872/A1 (peptide)
# chain: yMVLEY
# B15: BCAR1_128/A1 (peptide)
# chain: yQVPGP
# B16: PTPN11_263/A1 (peptide)
# chain: ySRKEG
# B17: PTPN11_279/A1 (peptide)
# chain: yKNILP
# B18: PTPN11_304/A1 (peptide)
# chain: yINANI
# B19: PTPN11_327/A1 (peptide)
# chain: yIATQG
# B20: PTPN11_515/A1 (peptide)
# chain: yRFIYM
# B21: PTPN11_546/A1 (peptide)
# chain: yTNIKY
# B22: PTPN11_584/A1 (peptide)
# chain: yENVGL
# B23: PTPN11_62/A1 (peptide)
# chain: yYDLYG
# B24: PTPN11_63/A1 (peptide)
# chain: yDLYGG
# B25: PTPN11_66/A1 (peptide)
# chain: yGGEKF
# B26: BCAR1_222/A1 (peptide)
# chain: yVYEAA
# B27: PTPN6_377/A1 (peptide)
# chain: ySVTNC
# B28: PTPN6_509/A1 (peptide)
# chain: yVAIAQ
# B29: PTPN6_536/A1 (peptide)
# chain: yGNITY
# B30: PTPN6_564/A1 (peptide)
# chain: yENLHT
# B31: PVR_398/A1 (peptide)
# chain: ySAVSR
# B32: Q59GD8_238/A1 (peptide)
# chain: yNQPDW
# B33: RAC1_64/A1 (peptide)
# chain: yDRLRP
# Biological target: GRB2 (endogenous complexes from cell lysate), P62993
# Test: GRB2 complex binding differential signal (pY peptide minus Ala control peptide) (fluorescence intensity units); higher = stronger GRB2 complex binding
# 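Further: phosphopeptide probes on the chip at 1–4 µM, lysate proteins bound in 20 mM Tris pH 7.0 buffer with 140 mM NaCl, 1% Triton X-100 and 5% glycerol.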
Binder,GRB2 complex binding differential signal (MCF7),GRB2 complex binding differential signal (MCF10A),GRB2 complex binding differential signal (MDA-MB-231),GRB2 complex binding differential signal (T47D)
B1,-9200 ± 1600,-1850 ± 1600,-147 ± 310,-819 ± 2000
B2,80.6 ± 360,787 ± 450,368 ± 320,122 ± 830
B3,4410 ± 490,2510 ± 710,2310 ± 480,640 ± 1000
B4,2640 ± 2100,570 ± 230,604 ± 350,465 ± 1100
B5,4570 ± 780,4020 ± 470,1430 ± 660,1120 ± 1800
B6,1680 ± 530,2460 ± 400,1070 ± 500,1360 ± 1200
B7,38800 ± 4700,7160 ± 2100,12900 ± 1900,33300 ± 6500
B8,1850 ± 380,898 ± 340,732 ± 360,295 ± 1000
B9,-684 ± 2700,22.5 ± 150,506 ± 270,
B10,1220 ± 950,1310 ± 240,1110 ± 540,1050 ± 850
B11,302 ± 240,422 ± 810,654 ± 280,95.4 ± 880
B12,246 ± 1900,302 ± 300,591 ± 460,133 ± 910
B13,16800 ± 940,9710 ± 3000,12300 ± 1100,19300 ± 4100
B14,-19.2 ± 360,113 ± 130,480 ± 370,1.84 ± 1100
B15,22000 ± 4000,4630 ± 1700,1340 ± 480,2060 ± 1100
B16,1340 ± 520,1830 ± 440,363 ± 510,709 ± 1600
B17,54700 ± 11000,49300 ± 8400,13000 ± 3200,34800 ± 12000

Binder,GRB2 complex binding differential signal (MCF7),GRB2 complex binding differential signal (MCF10A),GRB2 complex binding differential signal (MDA-MB-231),GRB2 complex binding differential signal (T47D)
B18,44200 ± 4600,25200 ± 4400,8960 ± 2300,19100 ± 4400
B19,1620 ± 390,1530 ± 210,619 ± 350,384 ± 940
B20,-175 ± 1800,287 ± 420,1100 ± 560,4340 ± 1500
B21,41300 ± 5400,22700 ± 2500,9610 ± 820,41800 ± 14000
B22,54000 ± 5200,41600 ± 5600,27900 ± 3400,39000 ± 12000
B23,369 ± 1800,75.8 ± 280,486 ± 310,752 ± 1500
B24,217 ± 230,-75.1 ± 160,254 ± 300,7.15 ± 860
B25,966 ± 280,505 ± 320,509 ± 430,279 ± 980
B26,290 ± 1200,711 ± 1600,858 ± 470,746 ± 2500
B27,401 ± 250,245 ± 230,405 ± 260,41.1 ± 2200
B28,1610 ± 440,1470 ± 480,924 ± 410,1250 ± 1200
B29,6120 ± 1800,1790 ± 1800,2710 ± 2900,12300 ± 6200
B30,30400 ± 8500,18700 ± 5400,19900 ± 3400,23500 ± 8300
B31,8930 ± 1700,3410 ± 1000,2270 ± 390,8220 ± 1900
B32,-113 ± 250,158 ± 220,-28.9 ± 420,247 ± 1100
B33,1740 ± 830,1570 ± 410,511 ± 270,1170 ± 1300
